Measurements reported in publication PMC7054686.
Results are given in words; binding and its absence hold for the method and conditions named. In cells and extracts the contact can be indirect. Some entries that bind do so weakly or less than the wild type.

Amino acid sequences for entries named in this document (tags omitted). A change or cut given only in a name is not applied to a line headed by its entry. Residues count along the entry.
UniProt O14763, residues 56-440: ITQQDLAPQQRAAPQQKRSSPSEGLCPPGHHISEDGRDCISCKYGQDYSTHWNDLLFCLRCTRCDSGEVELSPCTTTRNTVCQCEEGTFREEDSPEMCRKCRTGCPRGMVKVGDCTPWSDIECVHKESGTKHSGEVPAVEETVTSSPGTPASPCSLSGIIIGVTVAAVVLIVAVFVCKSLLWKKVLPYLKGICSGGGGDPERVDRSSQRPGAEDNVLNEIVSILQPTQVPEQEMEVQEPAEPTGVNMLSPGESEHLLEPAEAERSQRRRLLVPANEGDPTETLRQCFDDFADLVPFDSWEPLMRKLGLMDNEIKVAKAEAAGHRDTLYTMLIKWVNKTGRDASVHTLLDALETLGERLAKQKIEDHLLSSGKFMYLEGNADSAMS

Experiments:
[1] = target: TRAIL‐R2 (human (endogenous in A549, HCT116, DU145, PC3, U20S, HAP1)) (UniProt O14763); test: co-IP; TRAIL-R2 DISC IP with AMG655 beads (4×) in CASP8 null cells (A549 30, 60, 180 min; HCT116 CASP8 and CASP8/10 null 90 min; U20S clones)
[2] = target: TRAIL‐R2 (human (endogenous in A549, HCT116, DU145, PC3, U20S, HAP1)) (UniProt O14763); test: co-IP; TRAIL-R2 DISC IP: 75 μl Dynabeads coated with AMG655 (anti-TRAIL-R2; 1×, 2× or 4×) added to 5 × 10^6 cells for the indicated time (30-180 min, HAP1 up to 9 h); lysis in DISC IP buffer (0.2% NP-40, 20 mM Tris-HCl pH 7.4, 150 mM NaCl, 10% glycerol), five washes, Western blot; also after zVAD-fmk, caspase-8 or FLIP siRNA, MS-275, CASP10 or CFLAR knock-out

B1: procaspase‐10 (enzyme, UniProt Q92851 1-521)
chain: MKSQGQHWYSSSDKNCKVSFREKLLIIDSNLGVQDVENLKFLCIGLVPNKKLEKSSSASDVFEHLLAEDLLSEEDPFFLAELLYIIRQKKLLQHLNCTKEEVERLLPTRQRVSLFRNLLYELSEGIDSENLKDMIFLLKDSLPKTEMTSLSFLAFLEKQGKIDEDNLTCLEDLCKTVVPKLLRNIEKYKREKAIQIVTPPVDKEAESYQGEEELVSQTDVKTFLEALPQESWQNKHAGSNGNRATNGAPSLVSRGMQGASANTLNSETSTKRAAVYRMNRNHRGLCVIVNNHSFTSLKDRQGTHKDAEILSHVFQWLGFTVHIHNNVTKVEMEMVLQKQKCNPAHADGDCFVFCILTHGRFGAVYSSDEALIPIREIMSHFTALQCPRLAEKPKLFFIQACQGEEIQPSVSIEADALNPEQAPTSLQDSIPAEADFLLGLATVPGYVSFRHVEEGSWYIQSLCNHLKKLVPRMLKFLEKTMEIRGRKRTVWGAKQISATSLPTAISAQTPRPPMRRWSSVS
With B1 the binding [1] was “binds weakly” and the binding [2] was “binds”.
